From PMC12820563, “FoxP3 forms a head-to-head dimer in vivo and stabilizes its multimerization on adjacent microsatellites” come the findings set out here.

The other results are listed elsewhere or left out.

The target in this assay is T1, MBP-FoxP1dN (Mus musculus, UniProt P58462 326-579).
T1 sequence: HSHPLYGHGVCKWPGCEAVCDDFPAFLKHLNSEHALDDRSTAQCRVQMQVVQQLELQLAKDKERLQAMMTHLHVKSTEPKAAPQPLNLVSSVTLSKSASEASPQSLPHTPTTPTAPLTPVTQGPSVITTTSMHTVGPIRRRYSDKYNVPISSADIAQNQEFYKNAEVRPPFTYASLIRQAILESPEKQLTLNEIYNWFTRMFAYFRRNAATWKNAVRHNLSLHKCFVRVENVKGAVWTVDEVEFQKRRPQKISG
Put plainly: PD-seq (MBP pull-down with sequencing); 20 mM Tris-HCl pH 7.5, 100 mM NaCl, 1.5 mM MgCl2, 0.4 uM protein, 0.1 uM dsDNA library, 30 min, room temperature, amylose pull-down; high values mean tight binding. To be noted: protein: recombinant; tags: His6-MBP; chain copies: 2; dsDNA, one strand shown. Summed up: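 Binding is the reads-per-million enrichment of pull-down relative to input, pooled across replicates. For this, 0.4 µM His6-MBP-tagged mouse FoxP3 or FoxP1 fragment lacking the N-terminus, made in E. coli, was incubated with 0.1 µM Klenow-filled double-stranded degenerate DNA library for 30 min at room temperature in Tris pH 7.5 buffer with NaCl and MgCl2. Complexes bound to amylose resin were washed three times before proteinase K released the DNA for PCR barcoding and Illumina sequencing.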
As for “GATGATTGTTCTCCCAGCTGATGAATTCTATGTCTCGAGTAAACAAATTTTCCTAATCTTTCTGTTCAAGCGCCATCTAC”, the binding signal is 0.922 RPM ratio (pull-down/input). Regarding “GATGATTGTTCTCCCAGCTGATGAATTGTCCCGATCGAGTAAACAAATTTTCCTAATCTTTCTGTTCAAGCGCCATCTAC”, the binding signal was 0.937 RPM ratio (pull-down/input).

As for “GATGATTGTTCTCCCAGCTGATGAATTTGTGTATTCGAGTAAACAAATTTTCCTAATCTTTCTGTTCAAGCGCCATCTAC”, the binding signal is 1.98 RPM ratio (pull-down/input). “GATGATTGTTCTCCCAGCTGATGAATTCCGTCGATCGAGTAAACAAATTTTCCTAATCTTTCTGTTCAAGCGCCATCTAC”: the binding signal is 0.898 RPM ratio (pull-down/input). Turning to “GATGATTGTTCTCCCAGCTGATGAATTCCCACTCTCGAGTAAACAAATTTTCCTAATCTTTCTGTTCAAGCGCCATCTAC”, the binding signal is 0.819 RPM ratio (pull-down/input). “GATGATTGTTCTCCCAGCTGATGAATTCGTCCCATCGAGTAAACAAATTTTCCTAATCTTTCTGTTCAAGCGCCATCTAC”: the binding signal was 0.922 RPM ratio (pull-down/input). Consider “GATGATTGTTCTCCCAGCTGATGAATTAACGTCCTCGAGTAAACAAATTTTCCTAATCTTTCTGTTCAAGCGCCATCTAC”, for which the binding signal is 0.844 RPM ratio (pull-down/input). In the case of “GATGATTGTTCTCCCAGCTGATGAATTTCCAGCCTCGAGTAAACAAATTTTCCTAATCTTTCTGTTCAAGCGCCATCTAC” it was 0.805 RPM ratio (pull-down/input). Then “GATGATTGTTCTCCCAGCTGATGAATTCGAAATCTCGAGTAAACAAATTTTCCTAATCTTTCTGTTCAAGCGCCATCTAC”, with 0.792 RPM ratio (pull-down/input); and “GATGATTGTTCTCCCAGCTGATGAATTAAGACCGTCGAGTAAACAAATTTTCCTAATCTTTCTGTTCAAGCGCCATCTAC”, with 0.862 RPM ratio (pull-down/input); and “GATGATTGTTCTCCCAGCTGATGAATTGAAGTTGTCGAGTAAACAAATTTTCCTAATCTTTCTGTTCAAGCGCCATCTAC”, with 1.25 RPM ratio (pull-down/input). On to “GATGATTGTTCTCCCAGCTGATGAATTCTACAGTTCGAGTAAACAAATTTTCCTAATCTTTCTGTTCAAGCGCCATCTAC”, for which the binding signal is 0.868 RPM ratio (pull-down/input).

With “GATGATTGTTCTCCCAGCTGATGAATTGGGCATCTCGAGTAAACAAATTTTCCTAATCTTTCTGTTCAAGCGCCATCTAC”, the binding signal is 1.03 RPM ratio (pull-down/input).

As to “GATGATTGTTCTCCCAGCTGATGAATTTAGGTTTTCGAGTAAACAAATTTTCCTAATCTTTCTGTTCAAGCGCCATCTAC”, the binding signal was 1.08 RPM ratio (pull-down/input). As for “GATGATTGTTCTCCCAGCTGATGAATTTCCTGTCTCGAGTAAACAAATTTTCCTAATCTTTCTGTTCAAGCGCCATCTAC”, the binding signal is 0.814 RPM ratio (pull-down/input). In the case of “GATGATTGTTCTCCCAGCTGATGAATTAGATTTGTCGAGTAAACAAATTTTCCTAATCTTTCTGTTCAAGCGCCATCTAC”, the binding signal is 0.997 RPM ratio (pull-down/input). On to “GATGATTGTTCTCCCAGCTGATGAATTGCACACTTCGAGTAAACAAATTTTCCTAATCTTTCTGTTCAAGCGCCATCTAC”, for which the binding signal was 1.24 RPM ratio (pull-down/input). Regarding “GATGATTGTTCTCCCAGCTGATGAATTTTGCACTTCGAGTAAACAAATTTTCCTAATCTTTCTGTTCAAGCGCCATCTAC”, the binding signal is 0.981 RPM ratio (pull-down/input). Regarding “GATGATTGTTCTCCCAGCTGATGAATTGTTTATGTCGAGTAAACAAATTTTCCTAATCTTTCTGTTCAAGCGCCATCTAC”, the binding signal is 2.77 RPM ratio (pull-down/input).

Take “GATGATTGTTCTCCCAGCTGATGAATTTGTGTGGTCGAGTAAACAAATTTTCCTAATCTTTCTGTTCAAGCGCCATCTAC”: the binding signal was 1.18 RPM ratio (pull-down/input). In the case of “GATGATTGTTCTCCCAGCTGATGAATTAGAGAAGTCGAGTAAACAAATTTTCCTAATCTTTCTGTTCAAGCGCCATCTAC”, the binding signal is 0.918 RPM ratio (pull-down/input). Consider “GATGATTGTTCTCCCAGCTGATGAATTTGGAACCTCGAGTAAACAAATTTTCCTAATCTTTCTGTTCAAGCGCCATCTAC”, for which the binding signal was 0.828 RPM ratio (pull-down/input). For the sequence “GATGATTGTTCTCCCAGCTGATGAATTCTGCCGTTCGAGTAAACAAATTTTCCTAATCTTTCTGTTCAAGCGCCATCTAC”, the binding signal is 0.832 RPM ratio (pull-down/input). In the case of “GATGATTGTTCTCCCAGCTGATGAATTCGTGCGGTCGAGTAAACAAATTTTCCTAATCTTTCTGTTCAAGCGCCATCTAC” it was 0.799 RPM ratio (pull-down/input). As to “GATGATTGTTCTCCCAGCTGATGAATTATGTAGATCGAGTAAACAAATTTTCCTAATCTTTCTGTTCAAGCGCCATCTAC”, the binding signal is 1.06 RPM ratio (pull-down/input). “GATGATTGTTCTCCCAGCTGATGAATTTTTAGAGTCGAGTAAACAAATTTTCCTAATCTTTCTGTTCAAGCGCCATCTAC”: the binding signal is 0.904 RPM ratio (pull-down/input). In the case of “GATGATTGTTCTCCCAGCTGATGAATTACTAGTGTCGAGTAAACAAATTTTCCTAATCTTTCTGTTCAAGCGCCATCTAC” it was 1.13 RPM ratio (pull-down/input); in that of “GATGATTGTTCTCCCAGCTGATGAATTATAACACTCGAGTAAACAAATTTTCCTAATCTTTCTGTTCAAGCGCCATCTAC”, 1.13 RPM ratio (pull-down/input).

With “GATGATTGTTCTCCCAGCTGATGAATTGTACCGATCGAGTAAACAAATTTTCCTAATCTTTCTGTTCAAGCGCCATCTAC”, the binding signal was 1.02 RPM ratio (pull-down/input). In the case of “GATGATTGTTCTCCCAGCTGATGAATTTGCCGTCTCGAGTAAACAAATTTTCCTAATCTTTCTGTTCAAGCGCCATCTAC” it was 0.892 RPM ratio (pull-down/input). Turning to “GATGATTGTTCTCCCAGCTGATGAATTTGATGCATCGAGTAAACAAATTTTCCTAATCTTTCTGTTCAAGCGCCATCTAC”, the binding signal was 1.38 RPM ratio (pull-down/input).
